From PubChem BioAssay AID504333 (National Center for Advancing Translational Sciences (NCATS), 2011)
Among all 360,000 compounds or so, about 16,000 (4.4%) were called active. The inconclusive results got no clear call from the source; some entries with a clear call stand among them for comparison. Calls follow the shape of the dose curve; as a rule, active = well fitted inhibition curve with a large enough effect; inconclusive = small, poorly fitted or top-dose-only effect; inactive = no such curve, though single readings can be large or run the other way. Potencies beside an inconclusive call are fits to weak or partial responses and may not hold up.

What follows are molecules tested against Bromodomain adjacent to zinc finger domain protein 2B (Homo sapiens) (UniProt Q9UIF8) (assay: qHTS Assay for Inhibitors of BAZ2B). Settings: AlphaScreen BAZ2B-H3K14Ac peptide displacement; activity change, negative = inhibition: at 114 µM (top of the series) unless noted.
Sequence of UniProt Q9UIF8 (Q9UIF8 whole entry, looked up, the tested form may be a part): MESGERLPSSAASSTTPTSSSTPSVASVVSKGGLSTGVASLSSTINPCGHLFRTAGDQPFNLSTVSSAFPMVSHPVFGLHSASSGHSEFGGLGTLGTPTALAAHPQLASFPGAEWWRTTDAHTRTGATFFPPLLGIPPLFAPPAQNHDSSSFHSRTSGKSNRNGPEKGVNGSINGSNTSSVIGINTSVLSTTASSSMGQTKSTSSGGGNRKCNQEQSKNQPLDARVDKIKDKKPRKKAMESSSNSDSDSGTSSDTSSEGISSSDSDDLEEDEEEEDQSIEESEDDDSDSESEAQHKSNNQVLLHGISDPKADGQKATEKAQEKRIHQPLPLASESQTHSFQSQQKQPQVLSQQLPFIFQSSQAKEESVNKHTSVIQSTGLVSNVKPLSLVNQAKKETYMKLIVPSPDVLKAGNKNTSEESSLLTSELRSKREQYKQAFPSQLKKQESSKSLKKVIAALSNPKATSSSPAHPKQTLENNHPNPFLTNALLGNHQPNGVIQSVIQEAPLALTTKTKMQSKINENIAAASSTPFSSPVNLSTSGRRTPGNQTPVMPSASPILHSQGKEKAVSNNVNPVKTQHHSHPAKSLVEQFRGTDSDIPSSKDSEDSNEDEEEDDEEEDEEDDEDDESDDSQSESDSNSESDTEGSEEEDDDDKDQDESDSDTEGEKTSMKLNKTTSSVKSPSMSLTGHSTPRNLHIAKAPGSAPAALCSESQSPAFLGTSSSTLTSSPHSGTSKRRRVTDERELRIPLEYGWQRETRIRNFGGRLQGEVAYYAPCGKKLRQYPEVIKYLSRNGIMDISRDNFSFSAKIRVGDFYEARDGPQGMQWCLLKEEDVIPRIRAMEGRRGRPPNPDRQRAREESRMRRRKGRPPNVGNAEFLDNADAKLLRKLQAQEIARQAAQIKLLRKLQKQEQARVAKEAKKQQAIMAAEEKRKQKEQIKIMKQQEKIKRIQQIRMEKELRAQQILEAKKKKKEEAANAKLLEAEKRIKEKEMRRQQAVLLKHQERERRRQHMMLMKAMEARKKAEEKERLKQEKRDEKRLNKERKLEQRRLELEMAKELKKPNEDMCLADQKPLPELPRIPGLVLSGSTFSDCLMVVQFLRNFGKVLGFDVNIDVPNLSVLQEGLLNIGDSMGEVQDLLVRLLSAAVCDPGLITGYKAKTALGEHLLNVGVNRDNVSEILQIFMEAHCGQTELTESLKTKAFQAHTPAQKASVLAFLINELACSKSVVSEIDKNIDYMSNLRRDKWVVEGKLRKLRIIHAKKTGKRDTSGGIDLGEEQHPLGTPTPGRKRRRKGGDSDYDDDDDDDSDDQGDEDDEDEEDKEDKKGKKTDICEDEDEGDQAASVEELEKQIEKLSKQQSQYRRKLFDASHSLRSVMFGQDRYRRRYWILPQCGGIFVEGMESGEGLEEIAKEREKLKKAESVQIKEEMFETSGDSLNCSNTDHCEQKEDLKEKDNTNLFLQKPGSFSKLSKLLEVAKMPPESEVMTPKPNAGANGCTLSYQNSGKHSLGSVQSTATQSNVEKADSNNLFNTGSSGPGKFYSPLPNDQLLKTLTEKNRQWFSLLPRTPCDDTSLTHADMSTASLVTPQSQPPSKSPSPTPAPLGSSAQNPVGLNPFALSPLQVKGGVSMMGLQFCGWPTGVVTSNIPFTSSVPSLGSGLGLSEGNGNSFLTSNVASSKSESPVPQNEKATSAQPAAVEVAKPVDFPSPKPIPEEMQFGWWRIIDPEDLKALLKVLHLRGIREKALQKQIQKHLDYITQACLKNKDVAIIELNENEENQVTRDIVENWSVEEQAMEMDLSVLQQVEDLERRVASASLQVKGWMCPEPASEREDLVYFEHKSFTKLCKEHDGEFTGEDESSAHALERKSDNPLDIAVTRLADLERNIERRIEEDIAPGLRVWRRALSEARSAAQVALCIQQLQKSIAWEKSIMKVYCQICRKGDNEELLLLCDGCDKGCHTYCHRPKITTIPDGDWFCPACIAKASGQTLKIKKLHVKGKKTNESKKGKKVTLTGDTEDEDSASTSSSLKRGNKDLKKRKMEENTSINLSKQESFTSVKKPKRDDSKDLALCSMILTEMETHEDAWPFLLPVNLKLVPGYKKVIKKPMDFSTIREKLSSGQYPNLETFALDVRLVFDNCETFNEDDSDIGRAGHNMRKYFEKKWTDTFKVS
Method in brief: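 Protein-peptide AlphaScreen: BAZ2B 50 nM, b-H3K14Ac 50 nM, 1x PBS pH 7.4 + 0.01% Tween-20. Preincubation 30 min RT; cpd 30 min RT (top 110 uM); beads 20 min RT, light-protected.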
% is scaled to controls: 0 for no effect and ±100 for the full control effect; potency is read from the fitted curve at half-maximal effect; tags tell the direction and shape of the fitted curve.
Also: nearly all actives have a fitted effect of over 60% in size.

Row | Compound | Potency | activity change, negative = inhibition
1 | O=C1C(=Cc2ccco2)C(=O)c2ccccc21 | inconclusive: 70.8 µM [inhibitor, partial curve] | 
2 | COc1cccc(-c2cc(C(F)(F)F)n3nc(-c4ccc(C)cc4)cc3n2)c1 | inconclusive: 89.1 µM [inhibitor, single point] | 
3 | Cc1nn(C)cc1C1Nc2ccccc2C(=O)N1O (stereo not drawn) |  | inactive: 9.75%
4 | COc1ccccc1NS(=O)(=O)NC(=O)c1cn(C)c2ccccc12 | inconclusive: 50.1 µM [inhibitor, partial curve] | 
5 | Cc1nc(SCC(=O)Nc2cccc(Cl)c2)n[nH]1 |  | inactive: 1.53%
6 | O=C1C(=O)N(CCCn2ccnc2)C(c2cccc(Br)c2)/C1=C(\O)c1ccc2c(c1)OCCO2 (stereo not drawn) |  | inactive: -5.09%
7 | CC(C)NC(=O)Cc1csc2nc(-c3ccccc3)cn12 | inconclusive: 70.8 µM [inhibitor, partial curve] | 
8 | CC(C)(C)C1CCC(=NNC(=O)CN(c2ccccc2)S(C)(=O)=O)CC1 (stereo not drawn) |  | inactive: -6.15%
9 | CN(C)Cc1cc(O)c(CN(C)C)cc1O | active: 22.4 µM | 
10 | O=S(=O)(Nn1c(O)c(C=C2N=c3ccccc3=N2)sc1=S)c1ccccc1 | inconclusive: 44.7 µM [inhibitor, partial curve] | 
11 | CCN(CC)S(=O)(=O)c1ccc(Cl)c(NC(=O)COC(=O)c2ccc([N+](=O)[O-])o2)c1 | inconclusive: 56.2 µM [inhibitor, partial curve] | 
12 | Cc1cc(=O)oc2cc(NC(=O)COc3ccccc3[N+](=O)[O-])ccc12 | inconclusive: 89.1 µM [inhibitor, single point] | 
13 | C[C@H](C(=O)C=[N+]=[N-])N1C(=O)c2ccccc2C1=O |  | inactive: -0.0564%
14 | O=C(NCc1cccs1)Nc1cccs1 |  | inactive: -1.34%
15 | O=C(CSc1nnc(-c2ccccc2)c(-c2ccccc2)n1)Nc1ccccc1Cl | inconclusive: 15.8 µM [inhibitor, full curve] | 
16 | COCC(=O)N/N=C(\C)CC(=O)Nc1ccccc1C(N)=O | inconclusive: 89.1 µM [inhibitor, single point] | 
17 | Cc1ccc2oc(C(=O)N3CCC(O)(c4ccccc4)CC3)c(C)c2c1 | inconclusive: 79.4 µM [inhibitor, single point] | 
18 | CCc1c(C)sc(NC(=S)NC(C)C2CCCO2)c1C(=O)OC (stereo not drawn) | inconclusive: 79.4 µM [inhibitor, single point] | 
19 | N#CC1=C(Nc2ccccc2)SC=C(c2ccc(Cl)c(Cl)c2)N=C1N1CCOCC1 | inconclusive: 89.1 µM [inhibitor, single point] | 

Row | Compound | Potency | activity change, negative = inhibition
20 | N#Cc1c(N)nc2c(c1N)CC(=O)N2c1ccc(Cl)cc1 | inconclusive: 89.1 µM [inhibitor, single point] | 
21 | Cc1ccc(C2C=C(c3ccc(Cl)cc3)Nc3nc(NC(=O)CCC(=O)O)nn32)cc1 (stereo not drawn) | active: 79.4 µM | 
22 | CN1CCN(c2oc(-c3ccccc3F)nc2S(=O)(=O)c2ccc(Cl)cc2)CC1 | active: 35.5 µM | 
23 | Cn1cccc1/C=C1\SC(=S)N(NC(=O)c2ccc(Cl)cc2)C1=O | active: 12.6 µM | 
24 | C(/CCc1ccccc1)=N\Nc1nc2ccccc2[nH]1 | inconclusive: 28.2 µM [inhibitor, partial curve] | 
25 | O=C1NC(=S)SC1=C1CCCCCC1 | inconclusive: 79.4 µM [inhibitor, single point] | 
26 | CCOc1cc(C2C(C(=O)c3ccc(C)o3)=C(O)C(=O)N2CCc2ccccc2)ccc1O (stereo not drawn) | inconclusive: 50.1 µM [inhibitor, partial curve] | 
27 | Cc1c(C(=O)NCc2ccco2)oc2ccc(Br)cc12 | inconclusive: 89.1 µM [inhibitor, partial curve] | 
28 | CCCCn1c(N)c(N(CC(C)C)C(=O)c2cnccn2)c(=O)[nH]c1=O |  | inactive: 4.02%
29 | CCCSc1ncc(Cl)c(C(=O)Nc2ccc(OC)cc2OC)n1 |  | inactive: -3.42%
30 | CCOC(=O)c1ccc(NC(=O)Nc2cccc(OCc3cc(=O)n4ccc(C)cc4n3)c2)cc1 |  | inactive: 12.6%
31 | COc1ccc(NC(=O)CCc2nc3cccnc3n2Cc2cccs2)c(OC)c1 | inconclusive: 79.4 µM [inhibitor, single point] | 
32 | CN1CCN(C(=O)C2CCCN(S(=O)(=O)c3ccc(Cl)cc3)C2)CC1 (stereo not drawn) | active: 50.1 µM | 
33 | Cc1c(C(=O)O)cccc1-c1ccc(/C=C2\SC(=O)NC2=O)o1 |  | inactive: -6.54%
34 | Cc1cccc(N=N/C(=C\O)C(=O)c2cccs2)c1 | active: 11.2 µM | 
35 | Cc1ccc(S(=O)(=O)N2CCN(C(=O)COC(=O)c3cc(C)oc3C)CC2)cc1 | inconclusive: 89.1 µM [inhibitor, single point] | 
36 | CN(C)CCCN1c2ccccc2Sc2ccc(Cl)cc21 | active: 39.8 µM | 
37 | COc1ccc(/C=C/c2nc(-c3ccccc3O)n(-c3ccccc3)n2)cc1OC |  | inactive: 3.43%
38 | O=C(CN1CCN(S(=O)(=O)c2ccc3ccccc3c2)CC1)Nc1ccc(N2CCOCC2)cc1 |  | inactive: -37.7%
